Where a name gives a salt, the structure may show the parent alone. ± gives the standard error. The campaign covered roughly 1,300 compounds. About 75 (6%) showed an effect of 50% or more. The list shows a part of the results.
Tested on: Trichoderma virens ATCC 9645
Assay: growth yield (OD600) relative to untreated control; higher = less growth inhibition
Settings: compound concentration: 100 uM
Summary of the method: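 Library compounds (100 μM final), with or without a co-applied biocide (200 ng ml^−1), were added to 100 μl aliquots of Trichoderma virens ATCC 9645 spores at 15,000 spores ml^−1 in potato dextrose broth. Cultures were grown at 30 °C in 96-well plates, and OD600 was measured at 40 h and 72 h. Each growth value is a mean of duplicate screens, expressed relative to the control with neither agent.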

SMILES	growth yield (40 h)	growth yield (72 h)
O=c1cc(-c2ccc(O)c(O)c2)oc2cc(O)cc(O)c12 [Luteolin]	100 ± 4.8%	97 ± 4.5%
CC(C)(C(=O)c1cccnc1)c1cccnc1 [Metyrapone]	91 ± 3%	88.4 ± 2.6%
CC(C)(S)C(N)C(=O)O (racemic) [D,L-Penicillamine]	95 ± 3.2%	94.39 ± 0.84%
CC(=O)N(O)CCCCCNC(=O)CCC(=O)N(O)CCCCCNC(=O)CCC(=O)N(O)CCCCCN [Deferoxamine mesylate]	106 ± 4.8%	104 ± 3.2%
O=C1Cc2cc(CCN3CCN(c4nsc5ccccc45)CC3)c(Cl)cc2N1 [Ziprasidone  Hydrochloride]	107 ± 2.1%	109 ± 2.9%
CC(C)/N=c1\cc2n(-c3ccc(Cl)cc3)c3ccccc3nc-2cc1Nc1ccc(Cl)cc1 [Clofazimine]	90.1 ± 3.3%	116 ± 8.6%
CCN[C@H]1C[C@H](C)S(=O)(=O)c2sc(S(N)(=O)=O)cc21 [Dorzolamide hydrochloride]	99.3 ± 5.6%	92.7 ± 6.7%
CO[C@@]1(NC(=O)CSCC#N)C(=O)N2C(C(=O)O)=C(CSc3nnnn3C)CS[C@@H]21 [Cefmetazole sodium salt]	99 ± 4.6%	95.1 ± 4.3%
C[C@@H]1[C@H](O)[C@@H](C)/C=C/C=C/C=C/C=C/C=C/C=C/C=C/[C@H](O[C@@H]2O[C@H](C)[C@@H](O)[C@H](N)[C@@H]2O)C[C@@H]2O[C@](O)(C[C@@H](O)C[C@@H](O)[C@H](O)CC[C@@H](O)C[C@@H](O)CC(=O)O[C@H]1C)C[C@H](O)[C@H]2C(=O)O [Amphotericin B]	132%	118%
CCOC(=O)C(C)(C)Oc1ccc(Cl)cc1 [Clofibrate]	92.3 ± 1.1%	93.3 ± 2.5%
CC(C)NC[C@H](O)COc1ccc(CC(N)=O)cc1 [(S)-(-)-Atenolol]	100 ± 1.6%	101 ± 1.5%
CCC(Cc1c(I)cc(I)c(N)c1I)C(=O)O (centres undefined) [Iopanoic acid]	116 ± 3.2%	108 ± 3%
CCC(NC(C)C)C(O)c1ccc(O)c(O)c1 (centres undefined) [Isoetharine mesylate salt]	100.9 ± 0.48%	94.7 ± 0.52%
CN1CCc2cccc3c2[C@H]1Cc1ccc(O)c(O)c1-3 [R(-) Apomorphine hydrochloride hemihydrate]	86.4 ± 4.5%	86.1 ± 4.9%
CN1CCN(C2=Nc3cc(Cl)ccc3Nc3ccccc32)CC1 [Clozapine]	102 ± 2.4%	104.77 ± 0.1%
C[C@@H]1NC(=O)NC1=O [Methylhydantoin-5-(L)]	106 ± 7.9%	101 ± 4.2%
Cc1ccc(-c2ncc(Cl)cc2-c2ccc(S(C)(=O)=O)cc2)cn1 [Etoricoxib]	104 ± 2.5%	103 ± 3.4%
CC1CCc2c(N3CCC(O)CC3)c(F)cc3c(=O)c(C(=O)O)cn1c23 (centres undefined) [Nadifloxacin]	99.3 ± 1.1%	91.14 ± 0.52%
Clc1ccc(COC(Cn2ccnc2)c2ccc(Cl)cc2Cl)c(Cl)c1 (centres undefined) [Miconazole]	1.43 ± 1.1%	1.47 ± 0.63%
Cc1cc(=O)n(-c2ccccc2)n1C [Antipyrine]	105 ± 2.2%	101 ± 2.2%
NC12CC3CC(CC(C3)C1)C2 [Adamantamine fumarate]	102 ± 1.8%	98.69 ± 0.94%
CN(C)CC/C=C1\c2ccccc2CSc2ccccc21 [Dosulepin hydrochloride]	106 ± 4.8%	108 ± 4.7%
CC(C)(Oc1ccc(Cl)cc1)C(=O)O [Clofibric acid]	93.9 ± 4%	87.8 ± 3%

SMILES	growth yield (40 h)	growth yield (72 h)
Cn1c(=O)c2c(ncn2CC(=O)O)n(C)c1=O [Acefylline]	96.6 ± 1.9%	95.12 ± 0.94%
Cc1cc(C(=O)NNCc2ccccc2)no1 [Isocarboxazid]	102 ± 7%	94.3 ± 4.5%
CO[C@H]1C[C@H](O[C@H]2[C@H](C)[C@@H](O[C@@H]3O[C@H](C)C[C@H](N(C)C)[C@H]3OC(C)=O)[C@@H](C)C[C@@]3(CO3)C(=O)[C@H](C)[C@@H](OC(C)=O)[C@@H](C)[C@@H](C)OC(=O)[C@@H]2C)O[C@@H](C)[C@@H]1OC(C)=O [Troleandomycin]	100.5 ± 0.79%	98.4 ± 1.3%
COc1cc(OC)c(C(=O)CCCN2CCCC2)c(OC)c1 [Buflomedil hydrochloride]	107 ± 5.1%	105 ± 7.1%
N#CC(c1ccc(Cl)cc1)c1c(Cl)cc(-n2ncc(=O)[nH]c2=O)cc1Cl (centres undefined) [Diclazuril]	95.62 ± 0.64%	89.46 ± 0.1%
CCN1C(=O)NC(c2ccccc2)C1=O (centres undefined) [Ethotoin]	100 ± 2.1%	96.3%
CN1CCCC(CC2c3ccccc3Sc3ccccc32)C1 (centres undefined) [Metixene hydrochloride]	91.3 ± 10%	106 ± 11%
COc1ccccc1N1CCN(CC(O)COc2cccc3ccccc23)CC1 (centres undefined) [Naftopidil dihydrochloride]	97.4 ± 1.1%	110.22 ± 0.1%
CN1CCC(=C2c3ccccc3CC(=O)c3sccc32)CC1 [Ketotifen fumarate]	95.78 ± 0.48%	101 ± 2.9%
COc1ccc2c(c1)N(C[C@H](C)CN(C)C)c1ccccc1S2 [Methotrimeprazine maleat salt]	103 ± 10%	107 ± 7.1%
CCCN(CCC)C(=O)C(CCC(=O)O)NC(=O)c1ccccc1 (centres undefined) [Proglumide]	99.91 ± 0.16%	97.1%
CC(C)(Sc1cc(C(C)(C)C)c(O)c(C(C)(C)C)c1)Sc1cc(C(C)(C)C)c(O)c(C(C)(C)C)c1 [Probucol]	99.8 ± 1.9%	103.8 ± 0.21%
Nc1c(Br)cc(Br)cc1CN[C@H]1CC[C@H](O)CC1 [Ambroxol hydrochloride]	97.5%	104.56 ± 0.1%
Cn1ccnc1S [Methimazole]	96.7 ± 3%	95.33 ± 0.32%
COCC1=C(C(=O)OC(C)OC(=O)OC(C)C)N2C(=O)[C@@H](NC(=O)/C(=N\OC)c3csc(N)n3)[C@H]2SC1 (some centres undefined) [Cefpodoxime proxetil]	111 ± 5.2%	109 ± 1.9%
CCN(CC)CCOC(=O)C(c1ccccc1)C1CCCCC1 (centres undefined) [Drofenine hydrochloride]	98 ± 6.5%	99 ± 6.3%
COc1cc(Cc2cnc(N)nc2N)cc(OC)c1OC [Trimethoprim]	103 ± 3.5%	104 ± 1.5%
O=C(CCCN1CCC(O)(c2ccc(Br)cc2)CC1)c1ccc(F)cc1 [Bromperidol]	104.4 ± 0.48%	105.4 ± 0.1%
CC(=O)c1ccc2c(c1)N(CCCN1CCC(CCO)CC1)c1ccccc1S2 [Piperacetazine]	124 ± 8.6%	119 ± 8.9%
CO[C@@]1(NC(=O)Cc2cccs2)C(=O)N2C(C(=O)O)=C(COC(N)=O)CS[C@@H]21 [Cefoxitin sodium salt]	94.4 ± 3.5%	94.8 ± 1.9%
CCCCC(CC)CN1CN(CC(CC)CCCC)CC(C)(N)C1 (centres undefined) [Hexetidine]	105 ± 3.2%	118 ± 6.3%
COc1cc2c(cc1OC)C(=O)C(CC1CCN(Cc3ccccc3)CC1)C2 (centres undefined) [Donepezil hydrochloride]	99.91 ± 0.16%	98.69 ± 0.94%
Cc1cccc(C)c1NC(=O)C1CCCCN1C (centres undefined) [Mepivacaine hydrochloride]	99.3 ± 2.1%	96.6 ± 1.4%

SMILES	growth yield (40 h)	growth yield (72 h)
CN1C(C(=O)Nc2ccccn2)=C(O)c2sccc2S1(=O)=O [Tenoxicam]	96.3 ± 3.5%	101 ± 1.7%
Cc1ncc([N+](=O)[O-])n1CC(O)CCl (centres undefined) [Ornidazole]	99.8 ± 2.9%	103 ± 2.3%
C[C@]12CC[C@H]3C(=CCc4cc(O)ccc43)[C@@H]1CCC2=O [Equilin]	92.3 ± 8.1%	87 ± 4.8%
C=C[C@H]1CN2CC[C@H]1C[C@@H]2[C@@H](O)c1ccnc2ccc(OC)cc12 [Quinidine hydrochloride monohydrate]	104 ± 1.6%	105 ± 1.1%
Cn1c(=O)c2[nH]cnc2n(C)c1=O [Aminophylline]	103 ± 6.7%	101 ± 4%
CS(=O)(=O)c1ccc(C2=C(c3ccccc3)C(=O)OC2)cc1 [Rofecoxib]	102 ± 3.2%	101 ± 6.1%
CN(C)CCC=C1c2ccccc2CCc2ccccc21 [Amitryptiline hydrochloride]	95.94 ± 0.64%	97.95 ± 0.63%
Cc1ccnc2c1NC(=O)c1cccnc1N2C1CC1 [Nevirapine]	104 ± 3.5%	100 ± 4.4%
Cc1[nH]c(=O)c(C#N)cc1-c1ccncc1 [Milrinone]	106 ± 4.1%	103 ± 2.2%
NS(=O)(=O)c1cc2c(cc1Cl)N=CNS2(=O)=O [Chlorothiazide]	102 ± 1.1%	106.3 ± 0.63%
CNS(=O)(=O)Cc1ccc2[nH]cc(CCN(C)C)c2c1 [Sumatriptan succinate]	98.5 ± 5.7%	97.5 ± 5%
CN[C@H](CC(C)C)C(=O)N[C@H]1C(=O)N[C@@H](CC(N)=O)C(=O)N[C@H]2C(=O)N[C@H]3C(=O)N[C@H](C(=O)N[C@H](C(=O)O)c4cc(O)cc(O)c4-c4cc3ccc4O)[C@H](O)c3ccc(c(Cl)c3)Oc3cc2cc(c3O[C@@H]2O[C@H](CO)[C@@H](O)[C@H](O)[C@H]2O[C@H]2C[C@](C)(N)[C@H](O)[C@H](C)O2)Oc2ccc(cc2Cl)[C@H]1O [Vancomycin hydrochloride]	111.3 ± 0.48%	112 ± 2.5%
NC(=O)c1ncn([C@@H]2O[C@H](CO)[C@@H](O)[C@H]2O)n1 [Ribavirin]	99.59 ± 0.79%	100.8 ± 0.73%
CCOc1ccc2c(c1)C(C)=CC(C)(C)N2 [Ethoxyquin]	84 ± 4%	86.2 ± 1.5%
CCOC(=O)[C@H](CCc1ccccc1)N[C@@H](C)C(=O)N1[C@H](C(=O)O)C[C@@H]2CCC[C@@H]21 [Ramipril]	109 ± 3.5%	104 ± 2.6%
CC(C)COCC(CN(Cc1ccccc1)c1ccccc1)N1CCCC1 (centres undefined) [Bepridil hydrochloride]	84.8 ± 4.1%	103 ± 4.2%
NS(=O)(=O)c1cc(C(=O)O)c(NCc2ccco2)cc1Cl [Furosemide]	98.8 ± 2.2%	105 ± 3.4%
Cc1cc(C2CCCCC2)n(O)c(=O)c1 [Ciclopirox ethanolamine]	1.27 ± 1.3%	1.15 ± 1.1%
COc1cc(C(=O)NS(=O)(=O)c2ccccc2C)ccc1Cc1cn(C)c2ccc(NC(=O)OC3CCCC3)cc12 [Zafirlukast]	101.5 ± 0.79%	102.8 ± 0.21%
O=C1NCN(c2ccccc2)C12CCN(CCCC(c1ccc(F)cc1)c1ccc(F)cc1)CC2 [Fluspirilen]	96.4 ± 1.8%	107 ± 2.2%
CC(C)(C)C(=O)OCOC(=O)[C@@H]1N2C(=O)[C@@H](NC(=O)[C@H](N)c3ccccc3)[C@H]2SC1(C)C [Pivampicillin]	116 ± 7.5%	111 ± 4.1%
